Several values for one entry are separate records, joined by “and”; a condition that tells them apart may be missing. Identical values can stand only once. Inconclusive means that the source gave no clear call. Such entries were picked first, then a sample of the others. A potency beside an inconclusive call is a rough fit, not a confirmed value. Activity calls are given as the source filed them. Calls follow the shape of the dose curve; as a rule, active = well fitted cell-killing curve with a large enough effect; inconclusive = small, poorly fitted or top-dose-only effect, or effect the other way; inactive = no such curve, though single readings can be large or run the other way.
How the values were obtained:
[1] = Viability qHTS for spleen associated tyrosine kinase inhibitor (SYKi) naive MV4-11 cells (AID 1963823); conditions: MV4-11 AML viability, CellTiter-Glo luminescence, 72 h; viability (% of control): at 45 µM (top of the series); also: nearly all actives have a fitted effect of over 40% in size
In short: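 Cells: MV4-11, SYK inhibitor naive, 500 per well. Treatment: library compounds, 72 hr, 37 C, 5% CO2. Read-out: CellTiter-Glo luminescence after 10 min RT.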

[2] = Viability qHTS for spleen associated tyrosine kinase inhibitor (SYKi) drug resistant MV4-11 cells (AID 1963824); also: nearly all actives have a fitted effect of over 35% in size
In short: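 SYK-inhibitor-resistant MV4-11 AML cells were seeded at 500 per well onto compound and cultured 72 hours (37 °C, 5% CO2). CellTiter-Glo was then added, and after 10 min at room temperature, luminescence gave viability.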
Potency is read from the fitted curve at half-maximal effect; tags tell the direction and shape of the fitted curve.

| Compound | Potency [1] | Potency [2] | viability (% of control) [1] |
| --- | --- | --- | --- |
| COc1ccc([C@H]2Cc3cccc(O)c3C(=O)O2)cc1OC | inconclusive: 16.4 µM [cytotoxic, single point] | inconclusive: 20.6 µM [cytotoxic, partial curve] | – |
| CO[C@@H]1CC[C@H](OC[C@]2(COC(=O)c3ccc(C)[nH]3)[C@H](OC(C)=O)CC[C@@]3(C)[C@@H]4CC=C(C)[C@@H](C5=C(O)C(=O)OC5O)[C@]4(C)CC[C@@H]32)O[C@H]1C (stereo partly drawn) | inconclusive: 9.68 µM [cytotoxic, single point] | inconclusive: 9.68 µM [cytotoxic, single point] | – |
| CC(CC(C)O[C@@H]1O[C@H](CO)[C@@H](O)[C@H](O)[C@H]1O)OC(=O)/C=C/c1ccc(O)cc1 (stereo partly drawn) | inactive | inactive | – |
| C[C@@H]1O[C@@H](O[C@H]2[C@H](O[C@H]3CC[C@@]4(C)C(CC[C@]5(C)C4C=C[C@]46OC[C@@]7(CCC(C)(C)C[C@H]74)[C@@H](O[C@@H]4O[C@@H](C)[C@H](O)[C@@H](O)[C@H]4O)C[C@]65C)[C@]3(C)CO)O[C@H](CO)[C@@H](O)[C@@H]2O[C@@H]2O[C@H](CO)[C@@H](O)[C@H](O)[C@H]2O)[C@H](O)[C@H](O)[C@H]1O (stereo partly drawn) | inconclusive: 6.93 µM [cytotoxic, single point] | inconclusive: 3.48 µM [cytotoxic, single point] | – |
| C1=Cc2ccccc2C(=C2CCN(CCCCc3nn[nH]n3)CC2)c2ccccc21 | inconclusive: 20.6 µM [cytotoxic, single point] | inconclusive: 13 µM [cytotoxic, partial curve] | – |
| CN(C)CCCSc1ccccc1NC(=O)/C=C/c1ccccc1 | inactive | inactive | – |
| COC(=O)[C@@H]1C2CC3c4[nH]c5ccccc5c4CCN3CC2CC[C@@H]1O (stereo partly drawn) | inactive | inactive | – |
| CCOC(=O)c1cccnc1 | inactive | inactive | – |
| CN(C)C/C=C/C(=O)Nc1cccc(C(=O)Nc2cccc(Nc3ncc(Cl)c(-c4c[nH]c5ccccc45)n3)c2)c1 | inactive and inconclusive: 3.3 nM [cytotoxic, full curve] | inconclusive: 7.3 nM [cytotoxic, full curve, poor fit] and active: 3.7 nM | – |
| Brc1ccccc1-c1ccccc1 | inconclusive: 23.1 µM [cytotoxic, single point] | inconclusive: 5.8 µM [cytotoxic, partial curve, poor fit] | – |
| O=C(O)CCNc1cc(N2CCc3ccccc3CC2)nc(-c2cccnc2)n1 | inconclusive: 23.5 µM [cytotoxic, single point] | inconclusive: 18.6 µM [cytotoxic, partial curve, poor fit] | – |
| COC(=O)N1CCC(n2ncc3c(N4CCOCC4)nc(-c4ccc(NC(=O)NC5CC5)cc4)nc32)CC1 | inconclusive: 0.092 µM [cytotoxic, full curve] | inconclusive: 0.0092 µM [cytotoxic, full curve, poor fit] | – |
| COc1ccc(-n2c(SCC#N)nc3sc4c(c3c2=O)CCCC4)cc1 | inactive | inconclusive: 0.517 µM [cytotoxic, full curve, poor fit] | – |
| O=c1cc(N2CCOCC2)oc2c1ccc1ccccc12 | inconclusive: 4.61 µM [cytotoxic, partial curve] | inconclusive: 5.17 µM [cytotoxic, full curve] | – |
| CN1[C@@H]2CC(OC(=O)[C@H](CO)c3ccccc3)C[C@H]1[C@@H]1O[C@@H]12 (stereo partly drawn) | inactive | inconclusive: 15 µM [cytotoxic, partial curve, poor fit] | – |
| Cc1ccc(-c2c(C(=O)CCl)n(CCCO)c3ncnc(N)c23)cc1 | inconclusive: 9.2 µM [cytotoxic, partial curve] | inconclusive: 9.2 µM [cytotoxic, partial curve] | – |
| CN(C)CC1CCOC1(c1ccccc1)c1ccccc1 (stereo not drawn) | inconclusive: 4.85 µM [cytotoxic, single point] | inconclusive: 3.85 µM [cytotoxic, partial curve, poor fit] | – |
| CC1CCC2C(C)(C)C(O)CCC2(C)C12Cc1c(O)cc3c(c1O2)CN(C(CCC(N)=O)C(=O)O)C3=O (stereo not drawn) | inconclusive: 5.63 µM [cytotoxic, partial curve, poor fit] | inactive | – |
| CN(C)CCOc1cc(NS(=O)(=O)c2c(Cl)cc(C(F)(F)F)cc2Cl)ccc1Cl | inactive | inactive | – |
| Cn1cc(-c2ccc(S(=O)(=O)n3ccc(/C=C/C(=O)Nc4ccccc4N)c3)cc2)cn1 | active: 651 nM and active: 934 nM | active: 580 nM and active: 742 nM | – |

| Compound | Potency [1] | Potency [2] | viability (% of control) [1] |
| --- | --- | --- | --- |
| O=C(O)C(S)C(S)C(=O)O (stereo not drawn) | inactive | inactive | – |
| C=C1C(O)C(OC(=O)c2ccccc2)C2C(C)(C(=O)O)CCCC2(C)C1CC/C(C)=C\CO (stereo not drawn) | inconclusive: 14.2 µM [cytotoxic, single point] | inconclusive: 14.2 µM [cytotoxic, single point] | – |
| CC1=C2C3OC(=O)C(C)C3(O)CCC2(C)CCC1O (stereo not drawn) | inconclusive: 6.51 µM [cytotoxic, single point] | inconclusive: 6.51 µM [cytotoxic, single point] | – |
| CCOC(=O)C(CCc1ccccc1)NC1CCCN2CCCC(C(=O)O)N2C1=O (stereo not drawn) | inconclusive: 18.4 µM [cytotoxic, partial curve, poor fit] | inconclusive: 16.4 µM [cytotoxic, single point] | – |
| C=C(C(=O)OC)C1CCC2(C)C(O[C@@H]3O[C@H](CO)[C@@H](O)[C@H](O)[C@H]3O)CC(=O)C(C)C2C1O (stereo partly drawn) | inconclusive: 0.563 µM [rising, partial curve, poor fit] | inconclusive: 0.0502 µM [rising, full curve, poor fit] | – |
| CC(C)C(=O)OC[C@H]1O[C@H](O[C@H]2O[C@H](CO)[C@@H](O)[C@H](O)[C@H]2O)[C@H](O)[C@@H](O)[C@@H]1O | inconclusive: 2.24 µM [rising, single point] | inactive | – |
| O=C(NCC1(c2nc(-c3ccccc3)cs2)CCOCC1)c1cccc(-c2noc(C(F)(F)F)n2)c1 | inconclusive: 1.03 µM [cytotoxic, full curve] | inconclusive: 10.3 µM [cytotoxic, partial curve, poor fit] | – |
| Nc1nc(Cl)nc2c1ncn2C1OC(CO)C(O)C1F (stereo not drawn) | active: 0.116 µM | active: 0.13 µM | – |
| C=CC(C)(CC/C=C(\C)C(=O)OC[C@H]1O[C@@H](OC(C)(C=C)CC/C=C(\C)C(=O)O[C@H]2[C@H](O)[C@@H](O)[C@H](OC(C)(C=C)CC/C=C(\C)C(=O)O)O[C@@H]2CO)[C@H](O)[C@@H](O)[C@@H]1O)O[C@@H]1O[C@H](CO)[C@@H](O)[C@H](O)[C@H]1O (stereo partly drawn) | – | inconclusive: 0.348 µM [cytotoxic, partial curve, poor fit] | inactive: 81.1% [at 9.25 µM] |
| Cc1cc(C)c(S(=O)(=O)N(CCc2cccc(Br)c2)Cc2ccc(-c3cccc(S(C)(=O)=O)c3)cc2)c(C)c1 | inactive | inconclusive: 7.42 µM [cytotoxic, full curve, poor fit] | – |
| O=C(NC/C=C/CN1CCN(c2cccc(Cl)c2Cl)CC1)c1ccc(-c2ccccn2)cc1 | inconclusive: 6.51 µM [cytotoxic, partial curve] | inconclusive: 7.31 µM [cytotoxic, partial curve] | – |
| CC/C=C\C/C=C\C/C=C\CCCCCCCC(=O)OCC(O)COC1OC(CO)C(O)C(O)C1O (stereo not drawn) | inconclusive: 14.2 µM [cytotoxic, single point] | inconclusive: 7.96 µM [cytotoxic, single point] | – |
| CC1(C)CC[C@]2(C(=O)O)[C@H](O)C[C@]3(C)C(=CCC4[C@@]5(C)CC[C@H](O[C@@H]6O[C@H](CO[C@@H]7OC[C@H](O)[C@H](O)[C@H]7O[C@@H]7OC[C@H](O)[C@H](O)[C@H]7O)[C@@H](O)[C@H](O)[C@H]6O)C(C)(C)C5CC[C@]43C)[C@@H]2C1 (stereo partly drawn) | – | inconclusive: 3.9 µM [cytotoxic, single point] | inactive: 57.5% [at 9.25 µM] |
| C=C1CC/C=C(/CO)C(=O)C[C@@H]2[C@@H]1C[C@@]2(C)COC(C)=O | inconclusive: 23.1 µM [cytotoxic, single point] | inconclusive: 29.1 µM [cytotoxic, single point] | – |
| CNc1nc(Nc2cn(C(C)(C)C#N)nc2C)ncc1C(F)(F)F | inconclusive: 13 µM [cytotoxic, partial curve] | inconclusive: 23.1 µM [cytotoxic, partial curve] | – |
| CNC(=O)Nc1ccc(OC)c(NC(=O)NC(=O)c2cc(F)c(F)cc2Cl)c1 | inactive | inactive | – |
| CC(C)C[C@@H]1[C@H](c2ccccc2)OC(=O)N1CCCN1CCCCCC1 | inconclusive: 16.8 µM [cytotoxic, partial curve] | inconclusive: 13.3 µM [cytotoxic, partial curve, poor fit] | – |
| C[C@]12CCC(=O)C=C1CC[C@@H]1[C@@H]2CC[C@@]2(C)[C@H]1CC[C@]2(O)C(=O)CO | inactive | inactive | – |
| COc1cc(C(N)=O)nc(-c2ccccn2)c1O | inconclusive: 5.17 µM [cytotoxic, partial curve, poor fit] | inconclusive: 4.61 µM [cytotoxic, single point] | – |

From PubChem BioAssay (NCATS)
